The RNAGym collection of RNA variant scans (doi:10.1073/pnas.2313332121)
Variants at the floor of the assay are shown more often than the library holds them.

B1: TPR 5TU (parent)
chain: GGAUCUUCUCGAUCUAACAAAAAAGACAAAUCUGCCACAAAGCUUGAGAGCAUCUUCGGAUGCAGAGGCGGCAGCCUUCGGUGGCGCGAUAGCGCCAACGUUCUCAACUAUGACACGCAAAACGCGUGCUCCGUUGAAUGGAGUUUAUCAUG

Variants of: B1
Experiment: polymerase ribozyme fitness, log enrichment relative to wild type (log ratio); higher = more active; in vitro selection for triplet polymerase activity
Outline: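 One round of in vitro selection, in triplicate, was applied to PCR-built, transcribed mutant libraries of each subunit of a heterodimeric triplet polymerase ribozyme. The steps were annealing with a biotinylated primer, partner subunit and triplets, incubation frozen at −7 °C, gel excision of extended constructs, streptavidin-bead capture and RT-PCR. Fitness is the logarithm, base 2, of genotype enrichment over wild-type enrichment from inverse-variance-weighted replicate averages of Illumina-sequenced inputs and outputs, keeping genotypes with ≥10 input reads and ≥1 read per output.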

Variant	polymerase ribozyme fitness (log ratio)
C5G A16U G42C C85G C93G	≤ -4.2
C5A A28G C35G A37U C85G C96G C103G U151A	-3.65
C5U A22C C79G G86C C99U	≤ -4.2
C5G A26C G62C A64C G84U A91C U144G U148A	≤ -4.2
C5U C10G C35U C75G U102G A107U C118A	≤ -4.2
C5G A30G G42A C51U G92A C99U G140A	≤ -4.2
C5G A21C A29U U82A G94A G136C U151C	≤ -4.2
C5G C8U A21U G50U C75A G94U C118A	≤ -4.2
C5A C27U G62C A89G G92C G128C	≤ -4.2
C5G C87G	≤ -4.2
C5G C43U G81A A91U	≤ -4.2
C5G A30C U61A G143C U151A	≤ -4.2
C5U A49C G81U G94A A115G	≤ -4.2
C5A A26G C27U U33G U53A G88U A89C U109G	≤ -4.2
C5G U31C C85G U102G A137U	≤ -4.2
C5G G50U C75U C79U C85U A91G	≤ -4.2
C5G A49G U61A C85G	≤ -4.2
C5G A37C A40G G84A G141U	≤ -4.2
C5G U6C C8G G80A G92U	≤ -4.2
C5G A20C G88C A97U C103A G128C U134C U146C	≤ -4.2
C5G U7A C93U A106C	-3.03
C5G C57U G67U U78G U127G	≤ -4.2
C5G U9A C93A U104A C118G C125U U135G G141C G152A	≤ -4.2
C5G A17C U31G C36U C93U C95A A113U U148C	≤ -4.2

Variant	polymerase ribozyme fitness (log ratio)
C5A C96U	0.321
C5G U56A G84U U144A	-3.4
C5U C8G U9G U61G U77A G84A U146C	≤ -4.2
C5G G25C C54A C75G G83U	≤ -4.2
C5G A20U C75A C108G G143U	≤ -4.2
C5G C8U A24G G34A A41G G70C A107G G124U U151G	≤ -4.2
C5G A21U A37U G83U A89U G94U	≤ -4.2
C5G A20C G74U A113U A120U	≤ -4.2
C5G A52C G84A G100A A147G	≤ -4.2
C5U A20U C93A A98U A121U C125G A137U C149U	≤ -4.2
C5G U9A A52C A73G C87G A110U	≤ -4.2
C5A C18U G86U	-1.4
C5U A22G G80C G92A C103G C118G G136C A137U G143C A150U	≤ -4.2
C5G C51A C87A C99G A115G G136C A147C	≤ -4.2
C5G U9G G86A	-4
C5G U33G C54A C93G	≤ -4.2
C5G U111G	≤ -4.2
C5G G34A C38U C43U G83A	≤ -4.2
C5A U56A G58A C72U C87U U109G G136A U144C	-3.93
C5A G83U C93U A113C A122C	≤ -4.2
C5U A142U	-0.885
C5A C72U C85U C95U	-0.0103
C5G A12U A20U U82G G88C C103G C105A G143C C149U	≤ -4.2
C5U A60C G62U A91U C103G	≤ -4.2

Variant	polymerase ribozyme fitness (log ratio)
C5G G50A U61G G62A A66C C96A U146A	≤ -4.2
C5A C8A G62A G68C C87A	≤ -4.2
C5G A17U U55A G58A U61G A64G C87A C108U	≤ -4.2
C5A C36A U45G U55A U61A G62U A66U C108G C149U A150G	≤ -4.2
C5U C8A A26U A39G	≤ -4.2
C5A A24U A41G A49C U53A C85A	≤ -4.2
C5G C85A C116A	0.0205
C5A U109G G124C C131G	≤ -4.2
C5G A16G U61G C79A G92C A147G	≤ -4.2
C5A U9G C63U A64G G83C	≤ -4.2
C5G C10A G11A A37U G70A C123G U134C	≤ -4.2
C5G A16G A19G A24U A37G G50C G84U A120C G133U	≤ -4.2
C5U A20C C43G C76G C108G C114U A120U U146G	≤ -4.2
C5A C14G G94C G143A	-4.07
C5G A29G G46U A60G	≤ -4.2
C5G A49G C57U G59A G83U U102G	≤ -4.2
C5G C10A U13G A49C C85G A107G	≤ -4.2
C5A G86U A107G G152A	≤ -4.2
C5A U55A G68U C87U G100U U101G	≤ -4.2
C5G A24U G81C	-0.313
C5A A30U G84C C85G A137C A147G	≤ -4.2
C5G G25C A40C G83A A91C A122G	≤ -4.2
C5G C93G C95U C103G G143C U144G	≤ -4.2
C5A U6G A40G C54A G94C A115U G140U	≤ -4.2

Variant	polymerase ribozyme fitness (log ratio)
C5G U78G	≤ -4.2
C5U A23G C32A C57G G59A C87G C95A U134C	≤ -4.2
C5A A49G U61A G62C A91G	≤ -4.2
C5G G46A G88A C95G U102G U135C A147C	≤ -4.2
C5G C35G C85A	≤ -4.2
C5G A73U G84U C85A A150C	≤ -4.2
C5U A12C A26C G42U A52G U61G C85U U104G	≤ -4.2
C5U A28U C96U G143C	≤ -4.2
C5A G136A	0.816
C5U A17C A26G G42U G84A U109C	≤ -4.2
C5A U13G G81U G92C U145G	-2.12
C5G C35G U55G C95G C105U A137U	≤ -4.2
C5A U7C G92C U139G	-1.27
C5U A22U C57U C87U C93G C132A G140C	≤ -4.2
C5U A47C G59A C87U C93U	-3.16
C5A A29U G71C A91C C95A C103A U111G A122C G133C G140U	≤ -4.2
C5A C87U C129G A142U	≤ -4.2
C5G A39G C51U A106G	≤ -4.2
C5G G34A U134A	-3.83
C5U A21U A40U C57U C76A G83U C116A	≤ -4.2
C5U C10A A47C G58A A73U A91U C95G C118A G124A	≤ -4.2
C5A C93G C95U C103G G143C U144G	≤ -4.2
C5A C18G A40U	-0.118
C5G C54A C93A A97U	≤ -4.2

Variant	polymerase ribozyme fitness (log ratio)
C5U A24G A49G G58A A60G C93A C125A U144A	≤ -4.2
C5G C10U C76A C87U G92A	-2.35
C5A U6G A23C G50A U53G U55A A64G C87A A89U A115C C123U	≤ -4.2
C5U A19U C38U A41U A49U A52U G80A G84U C93A A98C G141U C149G	≤ -4.2
C5G C10U A49G U56A G74C C85U U90G C93U G100U A115C G141A	≤ -4.2
C5G C14G C27U U53A A66G A91U	≤ -4.2
C5A G65A C76A G83C C103A	≤ -4.2
C5U C27G A66C C93A G124C	≤ -4.2
C5G C10A A19C C57U C87U C103G G141C	≤ -4.2
C5G A52C G58A C93A C118U	-3.09
C5G U55A G68C G86C U90A	≤ -4.2
C5U A24G G94A C123U G140U	≤ -4.2
C5A U13C G25U A47G C76G A107U C125G	≤ -4.2
C5G A60U A119U G126U G141U	≤ -4.2
C5G U56A G94C A120G	-1.95
C5G G86A A110G U145A C149G	≤ -4.2
C5G A20C	-0.472
C5G U15G A20G C76G A91C C99G U148G	≤ -4.2
C5U A12C G34U A64U G92U C99G	≤ -4.2
C5G U9C C14A U61A C85A C96G A110G	≤ -4.2
C5G C8U A28C U33A U44A C85U U90A U139C	≤ -4.2
C5G G46C G59A A120G G140C	≤ -4.2
C5G U6G G59A G68A U77A G88C C95G	≤ -4.2
C5A A89G C95G C132U	-3.03

Variant	polymerase ribozyme fitness (log ratio)
C5A G68U C96G A97G	≤ -4.2
C5A G46C U77G A142C	≤ -4.2
C5G C27U C38G G81A U104C A115C	≤ -4.2
C5G A41C G46C C57G A60U G68C U135A G141A	≤ -4.2
C5G C36A G50C G68U A97U	≤ -4.2
C5U A22U U45A G65C C93U	≤ -4.2
C5U A28U C54G G81A G141C	≤ -4.2
C5A A28C C79A	≤ -4.2
C5U A60C C63A G67C A106G U130A A142U	≤ -4.2
C5U A26G U53A C72U G74C G86U C118U C123A A150U	≤ -4.2
C5G C14G A49G	-3.17
C5A C27U C75A A142G U146G	≤ -4.2
C5G C8A A24C C85G C95A A98U C108U	≤ -4.2
C5G C54A G65C A66G C85U	≤ -4.2
C5G U7G A12C A22U U90C U144A	≤ -4.2
C5U A17G G25C C43G C57U A60G C87U G88A C118G	≤ -4.2
C5A A28G G34C G74A U82A G86A C93A A97C	≤ -4.2
C5G A29C G70C C118A C129G A142C	≤ -4.2
C5G G11U G34U C57G C76G	≤ -4.2
C5G G11A A26G A47C C79G	≤ -4.2
C5A C32A U56A C85U A113C	≤ -4.2
C5A U13A A24G U82C G100C	≤ -4.2
C5G C10G A28U U33G C79U	≤ -4.2
C5A A29C U53G C95G G136U G143C	≤ -4.2

Variant	polymerase ribozyme fitness (log ratio)
C5A U7C A23U A40C U55G C87U C108G	≤ -4.2
C5U C27G A29G G71U U77G C85A G88U	≤ -4.2
C5G U13A A29G C51U G94C C114G G140C G141C U144A	≤ -4.2
C5A C93G	-2.32
C5U C8G A21U C87A C125A	≤ -4.2
C5G C10G C54U C57U G58A A91C	≤ -4.2
C5U A21G G59C C93G	-1.3
C5G C93G	-2.51
C5G C93U	-2.31
C5U A66G C87U	≤ -4.2
C5A G62C G67C G94A A106U	≤ -4.2
C5A G11C C32G G92U C99A C125G G136U G141U	≤ -4.2
C5A A60G G94C G141C A142C	≤ -4.2
C5A C51U A52G G70A	≤ -4.2
C5A G59C C96A A98U	-0.127
C5A C57U G81C G94C C108A G143C	≤ -4.2
C5G U6G G46C G50C U56A C57A G86A A98U U139G G141A	≤ -4.2
C5G A21C U56A G68A A113U	≤ -4.2
C5G C18G U55A U61G C96A A119U U134C	≤ -4.2
C5G C99A	-0.989
C5G C103A C114U	≤ -4.2
C5A G34U G58C C63U C99G C131A	≤ -4.2
C5G A29U A47U G50A C87A A89G C125G	≤ -4.2
